The campaign covered roughly 410,000 compounds. About 6,400 (1.6%) were called active. The inconclusive results got no clear call from the source; some entries with a clear call stand among them for comparison. Calls come from the whole dose curve; as a rule, active = well fitted inhibition curve with a large enough effect; inconclusive = small, poorly fitted or top-dose-only effect; inactive = no such curve, though single readings can be large or run the other way. Potencies of inconclusive entries are doubtful fits and often do not repeat.
Each molecule was assayed against Glucagon-like peptide 1 receptor (Homo sapiens) (UniProt P43220) (assay: qHTS of GLP-1 Receptor Inverse Agonists (Inhibition Mode)). Settings: HEK293 GLP-1R CRE-luciferase, luminescence, 24 h, GLP-1R form is constitutively active; activity change, negative = inhibition: at 38.3 µM (top of the series) unless noted.
Outline: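 Readout was luciferase luminescence, measured 12 min after detection reagent at room temperature. Beforehand, GLP-1R reporter HEK293 cells had sat 12 h, then received compounds for 24 hr at 37 deg C.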
% is set by controls: 0 for no effect and ±100 for the full control effect; potency is the fitted concentration of half-maximal effect; tags give direction and shape of the fitted curve.
Note: nearly all actives have a fitted effect of over 55% in size.

UniProt P43220, sequence (P43220 whole entry, looked up): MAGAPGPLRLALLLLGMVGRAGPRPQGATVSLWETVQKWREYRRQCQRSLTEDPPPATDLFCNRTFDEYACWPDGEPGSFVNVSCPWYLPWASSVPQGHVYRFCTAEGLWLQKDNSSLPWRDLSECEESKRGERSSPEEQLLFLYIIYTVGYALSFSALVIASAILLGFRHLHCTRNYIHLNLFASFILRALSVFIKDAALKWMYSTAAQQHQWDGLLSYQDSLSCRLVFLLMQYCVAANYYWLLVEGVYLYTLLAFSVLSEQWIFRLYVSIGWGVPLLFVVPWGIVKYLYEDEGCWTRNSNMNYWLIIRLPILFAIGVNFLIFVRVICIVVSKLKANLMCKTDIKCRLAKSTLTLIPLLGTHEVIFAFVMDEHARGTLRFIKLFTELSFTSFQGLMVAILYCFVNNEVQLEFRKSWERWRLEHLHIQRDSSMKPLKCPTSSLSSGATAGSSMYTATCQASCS

Potency, inconclusive:
O=C(Nc1ccc(Cl)c(C(F)(F)F)c1)[C@@H]1CC=C[C@@H]2CCN(C3CC3)C(=O)[C@@H]21 10 µM [inhibitor, single point], O=C(CCC1CCCC1)NNC(=O)c1ccccc1O 12.6 µM [inhibitor, partial curve, poor fit], Cc1ccc(C)c(S(=O)(=O)NCCCc2ccccc2)c1 28.2 µM [inhibitor, single point], O=C(CN1CCOCC1)Nc1ccccc1Sc1ccc(Cl)cc1 17.8 µM [inhibitor, single point], CN(C1=NS(=O)(=O)N=C(N(C)c2ccccc2)O1)c1ccccc1 12.6 µM [inhibitor, single point], CCOc1ccccc1NC(=O)c1cccc2ccccc12 22.4 µM [inhibitor, single point], Cc1ccc(C(c2nnnn2C2CCCC2)N2CCc3ccccc32)cc1 (configuration not stated) 6.31 µM [inhibitor, partial curve, poor fit], O=C(NC(=S)Nc1ccc(F)c(Cl)c1)C1CC1 10 µM [inhibitor, partial curve, poor fit], O=c1[nH][nH]c2c1[C@H](c1ccc(F)cc1)O[C@H](CCC(F)(F)F)C2 8.91 µM [inhibitor, single point], Nc1sccc1C(=O)c1ccc(Cl)cc1 22.4 µM [inhibitor, partial curve, poor fit], COc1cc(Nc2nc(SCc3ccccc3F)nc3ccccc23)cc(OC)c1 14.1 µM [inhibitor, single point], Cc1ccccc1OCCC(=O)N1CCN(S(=O)(=O)c2ccc(Br)cc2)CC1 10 µM [inhibitor, partial curve, poor fit], CCOc1ccc(C(=O)NCCc2sc(-c3ccc(C)cc3)nc2C)cc1 22.4 µM [inhibitor, single point], O=C(Nc1ccc(F)c(Cl)c1)c1cc(C2CCCN(S(=O)(=O)c3cccs3)C2)on1 (configuration not stated) 11.2 µM [inhibitor, partial curve, poor fit], CC(Sc1nnnn1C)C(=O)Nc1nc(-c2ccc(F)c(F)c2)cs1 (configuration not stated) 28.2 µM [inhibitor, single point], Cc1cc2c(ncn2C)c(NS(=O)(=O)c2cc(Cl)ccc2Cl)c1C 6.31 µM [inhibitor, partial curve, poor fit], CCn1c(/C=C\c2ccccc2C)nc2ccccc2c1=O 31.6 µM [inhibitor, single point], CCc1ccc(C(C)NC(=O)Cc2ccc(F)cc2)cc1 (configuration not stated) 10 µM [inhibitor, partial curve, poor fit], c1ccc(-n2cnc3cc(NCc4cccs4)ccc32)cc1 11.2 µM [inhibitor, partial curve, poor fit], O=S(=O)(c1cccc(C(F)(F)F)c1)N1CCC(CO)(CCCc2ccccc2)CC1 25.1 µM [inhibitor, single point], COc1ccc(S(=O)(=O)N2CCCCC2)cc1NC(=O)c1ccc(CS(C)(=O)=O)cc1 0.501 µM [inhibitor, full curve, poor fit], COc1ccc(C[C@@H]2OC3(C=CC(=O)C=C3)O[C@H]2Cc2ccc(OC)cc2)cc1 2.82 µM [inhibitor, full curve, poor fit], Oc1cccc(C2c3[nH]c4ccccc4c3CCN2Cc2ccoc2)c1 (configuration not stated) 11.2 µM [inhibitor, partial curve, poor fit], Cc1ccc2c(CC(=O)N3CCN(c4cccc(Cl)c4)CC3)coc2c1 20 µM [inhibitor, single point], COc1cc2nc(N(CCCN(C)C)C(=O)c3ccc(C(=O)c4ccccc4)cc3)sc2cc1OC 10 µM [inhibitor, partial curve, poor fit], O=S(=O)(Nc1ccc(F)c(C(F)(F)F)c1)c1ccc(N2CCCCS2(=O)=O)cc1 15.8 µM [inhibitor, partial curve, poor fit], O=C(NC(=S)Nc1ccccc1O)c1ccc(Cl)cc1Cl 7.94 µM [inhibitor, partial curve, poor fit], Fc1ccc(CN2CCN(c3ncnc4scc(-c5ccc(F)cc5)c34)CC2)cc1 28.2 µM [inhibitor, single point], CN(CC(=O)Nc1ccc2c(c1)CCC2)CC(=O)Nc1ccccc1Br 12.6 µM [inhibitor, single point], CC1CCN(S(=O)(=O)c2ccc3c(c2)N(CC(=O)NCc2ccccc2Cl)C(=O)CS3)CC1 11.2 µM [inhibitor, partial curve, poor fit], CC(C)=C1C2CCC1C(C(=O)Nc1sc(C)c(-c3ccc(C(C)C)cc3)c1C(N)=O)C2C(=O)O (configuration not stated) 3.16 µM [inhibitor, partial curve, poor fit], O=C(Cn1nnc(-c2ccccc2Cl)n1)N1CCN(S(=O)(=O)c2ccc(Cl)cc2)CC1 10 µM [inhibitor, single point], COc1cccc(-c2cc(NC=O)c3ncc(-c4cc(OC)c(OC)c(OC)c4)n3c2)c1 0.891 µM [inhibitor, full curve, poor fit], O=C(Nc1ccc(-n2cccn2)cc1)C1CCCCN1Cc1cccc2c1OCO2 (configuration not stated) 8.91 µM [inhibitor, partial curve, poor fit], CCc1ccc(C(=O)Nc2nc3ccccc3[nH]2)cc1 4.47 µM [inhibitor, full curve], CC1CCC(NC(=O)c2ccc3c(c2)N(Cc2ccccc2F)C(=O)c2ccccc2S3)CC1 (configuration not stated) 10 µM [inhibitor, partial curve, poor fit], COc1ccccc1C(=O)ON=C1c2ccccc2-c2ccccc21 22.4 µM [inhibitor, single point], Cc1ccc(NC(=O)C2Oc3ccccc3OC2C)cc1 (configuration not stated) 14.1 µM [inhibitor, single point], CCOCCn1c(CN(Cc2ccccc2)Cc2ccccc2)nc2c1c(=O)[nH]c(=O)n2C 31.6 µM [inhibitor, partial curve, poor fit], COc1cccc(CN2CCN(Cc3cc4ccccc4[nH]3)CC2CCO)c1 (configuration not stated) 11.2 µM [inhibitor, single point], CCN(CC)CC(O)COc1ccccc1C(=O)CCc1ccccc1 (configuration not stated) 22.4 µM [inhibitor, partial curve, poor fit], COc1nc(NC23CC4CC(CC(C4)C2)C3)nc(OC)n1 8.91 µM [inhibitor, partial curve, poor fit], O=C(NCc1ccco1)c1cccc(Nc2nc3ccc(Br)cc3[nH]2)c1 10 µM [inhibitor, partial curve, poor fit], CCCN(CCC)CC(O)CN(c1cc([N+](=O)[O-])ccc1OC)S(=O)(=O)c1ccccc1 (configuration not stated) 28.2 µM [inhibitor, single point], CC1CCN(CCCNC(=O)c2ccc(CSCc3cccc(Cl)c3)o2)CC1 10 µM [inhibitor, partial curve, poor fit], Cc1cc(C)c2nc3nc(C)cc(C)c3c(N)c2c1 6.31 µM [inhibitor, partial curve, poor fit], COc1ccc(-c2cc(-c3nc4ccccn4c3NCc3ccccc3)ccc2OC)cc1 10 µM [inhibitor, partial curve, poor fit], N=c1n(CCN2CCCCC2)c2ccccc2n1CC(O)c1ccc(Cl)c(Cl)c1 (configuration not stated) 28.2 µM [inhibitor, single point], COc1ccc(COc2cc(-c3cccc(OC)c3)nc3ccc(N)cc23)cc1 0.316 µM [inhibitor, full curve, poor fit], CCOc1ccc(S(=O)(=O)N2CCCC(C(=O)NCc3ccccn3)C2)cc1C (configuration not stated) 5.01 µM [inhibitor, full curve, poor fit]

Activity change, negative = inhibition, inactive:
Cc1ccc(CCNC(=O)c2ccc(CS(=O)(=O)c3ccc(Br)cc3)o2)cc1 -0.273%, Brc1ccccc1/C=N/Nc1ccccn1 -8.37%, CN(C)c1cc[n+](CC(=O)N2CCCc3ccccc32)cc1 3.57%, Cc1cccc(C)c1N1C(=O)c2ccccc2NC(=O)C1C(=O)NCCc1ccccc1F (configuration not stated) 24.9%, CCCCNc1ccc(-c2nc(-c3ccccc3)no2)cc1[N+](=O)[O-] 16.5%, O=C(Nc1cccc(C(F)(F)F)c1)C1CCCN(S(=O)(=O)c2cccc3nsnc23)C1 (configuration not stated) -19.9%, CC1CN(C(=O)/C=C/c2ccc3c(c2)OCO3)CC(C)O1 (configuration not stated) 0%, CN1CCN(CCCNC(=O)c2cc3c(=O)oc4ccccc4c3s2)CC1 0.453%, NC(=O)CSc1nc2ccc(NC(=O)COc3ccccc3)cc2s1 -23.5%, CCOC(=O)CSc1cc(C)c(C#N)c2nc3ccccc3n12 9.27%, COc1ccc(CC(NC(C)=O)C(=O)NC2CCN(c3nc(C)cc(C)c3C#N)CC2)c(OC)c1 (configuration not stated) 11.4%, OC(COC1CCCCC1)CN1CCCCC1 (configuration not stated) 8.06%
